Biological target: T1, recombinant human VEGF-A165 (human)
T1 chain: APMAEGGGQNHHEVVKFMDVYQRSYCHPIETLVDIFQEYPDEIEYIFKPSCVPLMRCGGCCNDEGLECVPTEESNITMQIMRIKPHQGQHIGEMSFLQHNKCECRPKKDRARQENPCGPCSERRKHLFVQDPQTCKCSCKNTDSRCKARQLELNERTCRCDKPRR
Assay: kinetic exclusion assay (KinExA); solution equilibrium; VEGF-A165 titrated (48.8 fM-1 nM) against constant aflibercept (2.5, 5.0 and 50.0 pM); equilibrated at 23°C for 5 to 120 hours in PBS, 0.01% Tween-20, 0.02% NaN3, 1 mg/mL BSA, pH 7.4; free inhibitor captured on VEGF-A165-coupled azlactone beads; one-site homogeneous binding model, N-curve global analysis; duplicate
Conditions: both partners purified

B1: aflibercept (Fc fusion)
chain: SDTGRPFVEMYSEIPEIIHMTEGRELVIPCRVTSPNITVTLKKFPLDTLIPDGKRIIWDSRKGFIISNATYKEIGLLTCEATVNGHLYKTNYLTHRQTNTIIDVVLSPSHGIELSVGEKLVLNCTARTELNVGIDFNWEYPSSKHQHKKLVNRDLKTQSGSEMKKFLSTLTIDGVTRSDQGLYTCAASSGLMTKKNSTFVRVHEK[human IgG1 Fc not printed]
Kd: 0.172 pM

— PMC9617509, “Evaluation of Molecular Properties versus In Vivo Performance of Aflibercept, Brolucizumab, and Ranibizumab in a Retinal Vascular Hyperpermeability Model” (Translational Vision Science & Technology, 2022)
